# Measured values as given in article PMC5836133.
# The other results are listed elsewhere or left out. At the low end of the ranking, values are background and their order means little.
# System: T1, GST-NbGlk1(82-244)
# T1 sequence: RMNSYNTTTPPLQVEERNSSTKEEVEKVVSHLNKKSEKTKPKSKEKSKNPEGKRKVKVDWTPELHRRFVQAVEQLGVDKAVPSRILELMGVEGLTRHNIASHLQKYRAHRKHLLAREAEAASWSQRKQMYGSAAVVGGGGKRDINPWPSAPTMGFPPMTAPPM
# Experiment: protein-binding microarray;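 note: rank-based score ranging −0.5 to +0.5 with E above 0.45 taken as significant binding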
# Conditions: NbGlk1 is a Golden2-like transcription factor of Nicotiana benthamiana; high values mean tight binding; most listed sequences are background and not binding sites; double strand, one strand shown
row,Sequence,binding signal [E-score]
1,AGGTATAG,-0.162
2,ACCATACT,0.0125
3,AGCTCGCA,-0.198
4,AACATGTG,-0.191
5,ACTCGCAA,0.116
6,CAATGGTG,-0.0635
7,CAGCGAAA,0.0177
8,AAATCTTG,0.421
9,AATTTAAG,0.118
10,ACGACCGA,-0.0228
11,ACTTCGCG,-0.0497
12,CAATTCAA,0.0499
13,AACTGGTC,-0.12
14,AGTGTAAT,0.362
15,AGTTTGCA,-0.0193
16,ACCTCTGG,-0.276
17,AGTACCTG,-0.129
18,ACTATGTC,-0.0704
19,ATGCGTTG,-0.0639
20,AACCAGGT,-0.214
21,ATCTCTGG,0.205
22,ACCCTGGA,-0.125
23,ACTGGGTA,0.0359
24,ACGCGTGG,-0.000566
25,AGTACGGA,0.00996

row,Sequence,binding signal [E-score]
1,AAAACGCT,-0.0849
2,AGGGGGTC,-0.304
3,ACTCGAGA,0.0784
4,ACGTGTTG,-0.0436
5,AGGAGGCC,-0.301
6,AGTACAAG,-0.115
7,ATGGTCAG,-0.0491
8,ATGCTGTG,0.0921
9,AGGGGAGC,-0.258
10,AAGGTTGG,-0.222
11,ATGGAGGG,-0.16
12,AGGGGTAG,-0.169
13,CACCAACA,-0.0219
14,AGACACCT,-0.0591
15,AGGTCGGA,0.0259
16,ATAAGTCG,-0.088
17,AGTGAAAG,-0.101
18,ACAACGAG,0.0714
19,ATTGGCGG,-0.0331
20,ATATCAGA,0.343
21,AACTTCTA,-0.0215
22,ACCGCCGA,-0.0341
23,AGCCCCCA,-0.375
24,AGCCTGCG,-0.298
25,ACCCTGAA,-0.103

row,Sequence,binding signal [E-score]
1,AATCCCCG,0.362
2,AGGTAAAA,0.106
3,AAGTCATC,-0.231
4,AGCTAACG,-0.192
5,AGATACAC,0.183
6,CAAAATAC,0.244
7,AGACCGTC,-0.239
8,AGTCCTAA,-0.165
9,ACTGATAT,0.33
10,ACTATCGC,-0.0293
11,AGCATTGC,-0.132
12,AATGACCC,-0.24
13,AGAAGGAC,-0.222
14,ACGCTGGG,-0.209
15,ACCAATCC,0.129
16,ACCAGAGT,-0.21
17,AATCTCAC,0.394
18,ATCGCATC,0.189
19,ATAATGCA,0.192
20,AGAAAGGA,0.0249
21,AATACGTC,0.14
22,ACTCATGC,-0.101
23,ATCCGAAG,0.192
24,CACTCTCA,-0.217
25,ACTAGTAC,-0.0323

row,Sequence,binding signal [E-score]
1,ATGGCAGC,-0.181
2,ACTGTGCT,-0.161
3,ATTAAAAG,0.136
4,AGAGTAAC,-0.0594
5,AACCTTAG,-0.0856
6,CAATTCTC,0.0898
7,AACGATCT,0.151
8,AGGGGTGA,-0.0964
9,AGGATAGC,0.0187
10,ATATAAGA,0.21
11,ACACCGAA,0.143
12,AATCAGCC,0.211
13,AGGGCCCT,-0.312
14,CACTAGCC,-0.187
15,CACAGTCA,-0.0461
16,ACGATTCA,0.109
17,AGTGGTAG,-0.0335
18,AATAAAGA,0.192
19,AATGTCGA,0.0139
20,CACAAGCA,-0.0607
21,ACTTCGAG,-0.164
22,AGAATTTG,0.293
23,ACTGAGTC,-0.206
24,ATTCAAAC,0.0715
25,AAATCATA,0.343

row,Sequence,binding signal [E-score]
1,ATGAATCA,0.175
2,ACGTACAA,0.0901
3,ACGCGTAC,-0.0754
4,ATTGAAAG,0.0488
5,AGGGGTAA,0.0854
6,AGGGGCCG,-0.278
7,AGAGTCAT,0.0401
8,AAATCAAC,0.349
9,ACATTTAG,-0.00602
10,CAGATGTA,-0.0502
11,AACTTAGT,-0.145
12,AGGGTTCC,-0.264
13,AGGATGTG,0.033
14,ACTATATA,0.125
15,ATAAGGGC,-0.209
16,AGTTCCGA,-0.0741
17,ATGCAGCC,-0.246
18,AAACCCGT,-0.105
19,ACTCTTCC,-0.263
20,ACTTATGC,-0.107
21,ACTCCGAA,-0.034
22,ATAACGTC,0.0192
23,AGGGCACG,-0.223
24,AAGTAAAA,0.21
25,AGAAGAGC,-0.0676

row,Sequence,binding signal [E-score]
1,ACTGTAGC,0.0356
2,AGAGGTTC,-0.2
3,AAGAGGCA,-0.126
4,ACAACCGA,-0.0668
5,ATCTGAGA,0.327
6,ATCATTTA,0.151
7,CAATAATA,0.157
8,ATAAGTAA,0.18
9,AAAATATG,0.218
10,CAACGGAA,0.0739
11,AATTAAGA,0.187
12,ACGAACAG,-0.21
13,ATGCTGTA,0.0608
14,AATGCCTC,-0.204
15,ATAACGCC,-0.127
16,AAGTTACG,-0.00986
17,AACGAGGG,-0.236
18,AGCCTGAC,-0.16
19,AGCACTTG,-0.238
20,ATAACAAA,0.109
21,ACTAAGTC,-0.0822
22,ATGACCAC,-0.236
23,ACCACCGA,-0.0886
24,ACGGACCG,-0.172
25,ATTCGGTG,0.141

row,Sequence,binding signal [E-score]
1,ACCGCCTG,-0.218
2,AAGAGCCG,-0.16
3,AAGCGACG,-0.0497
4,ACACCGCA,-0.0104
5,ACCAGGTG,-0.249
6,ATCCCAAC,0.175
7,AGGAATTC,0.0745
8,AGAACTTC,-0.134
9,AACATATC,0.279
10,AGGACCCT,-0.359
11,CAACACTG,0.00603
12,ATGATGAA,0.0329
13,AGATAACC,0.0595
14,AGCGTGAA,-0.147
15,AGCTCAAC,-0.0128
16,AACCGTTG,-0.117
17,AATCTGAA,0.444
18,ACCTAAGC,-0.204
19,ACTAAATA,0.0579
20,AGGCTCAT,-0.23
21,AAGCCATC,-0.0651
22,AGTACTTC,-0.0113
